{"source": "the supplement of paper PMC7826260", "note": "This is one part of the list. One pool of 16,384 single-stranded DNAs met each Rep nickase domain in vitro (1 h at 37 °C, 3 µM enzyme); the outer parts of the 90-letter strands are left off. Values are log2 of uncut reads against the no-enzyme pool; uncut sequences lie near 0, cut ones below; no hit call is given. The scaling is to total reads; uncut strands gain when others are lost, and binding without cutting may add a little.", "data": [{"system": "T1, Rep nickase domain of tomato golden mosaic virus", "T1 sequence (residues 1-124 of Rep, tag left off)": "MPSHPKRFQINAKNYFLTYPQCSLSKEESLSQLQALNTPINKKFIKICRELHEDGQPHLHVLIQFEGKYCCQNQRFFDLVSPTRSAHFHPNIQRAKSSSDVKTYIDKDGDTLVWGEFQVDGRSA", "assay": "uncleaved DNA left, log2 of reads against the no-enzyme library (log2 ratio); higher = less cleavage (more negative = more Rep cleavage of the k-mer); sequences stand for … in CTCGTCCG…ACCGGAGA", "description": "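A pool of 90-nt single-stranded DNAs with seven random bases just before the constant AC of the nick site (name = the seven bases) was cut by 3 µM recombinant His6-SUMO-tagged Rep nickase domain (300 nM DNA, 50 mM HEPES pH 8.0, 50 mM NaCl, 1 mM MnCl2, 1 h, 37 °C, three replicates). Uncut DNA was amplified and sequenced.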", "values": [{"sequence": "ATCTACG", "uncleaved DNA left (log2)": -0.109}, {"sequence": "ATTGCAT", "uncleaved DNA left (log2)": 0.0276}, {"sequence": "GGAGGTT", "uncleaved DNA left (log2)": -0.0517}, {"sequence": "ACTATAT", "uncleaved DNA left (log2)": -0.0215}, {"sequence": "CATTGAC", "uncleaved DNA left (log2)": -0.0252}, {"sequence": "AGCGTTT", "uncleaved DNA left (log2)": 0.0605}, {"sequence": "TCGACTG", "uncleaved DNA left (log2)": 0.143}, {"sequence": "ACTGGGC", "uncleaved DNA left (log2)": -0.0408}, {"sequence": "AATAATC", "uncleaved DNA left (log2)": 0.0744}, {"sequence": "CGCGTGT", "uncleaved DNA left (log2)": -0.137}, {"sequence": "TAATCTG", "uncleaved DNA left (log2)": -0.0162}, {"sequence": "CTGAACG", "uncleaved DNA left (log2)": -0.0285}, {"sequence": "AGATACC", "uncleaved DNA left (log2)": 0.0901}, {"sequence": "TTTTGCG", "uncleaved DNA left (log2)": -0.167}, {"sequence": "AGCAGTG", "uncleaved DNA left (log2)": 0.11}, {"sequence": "CATGAGT", "uncleaved DNA left (log2)": -0.00436}, {"sequence": "CTCCTGC", "uncleaved DNA left (log2)": -0.107}, {"sequence": "AAATACA", "uncleaved DNA left (log2)": -0.161}, {"sequence": "TTTGGGT", "uncleaved DNA left (log2)": -0.0324}, {"sequence": "ACCCCGA", "uncleaved DNA left (log2)": -0.0427}, {"sequence": "ATGCTCT", "uncleaved DNA left (log2)": -0.244}, {"sequence": "CAGGTGG", "uncleaved DNA left (log2)": -0.138}, {"sequence": "TACTACT", "uncleaved DNA left (log2)": -2.98}, {"sequence": "TACACCC", "uncleaved DNA left (log2)": -0.0611}, {"sequence": "ATGTCAC", "uncleaved DNA left (log2)": -0.102}, {"sequence": "CATTATG", "uncleaved DNA left (log2)": 0.021}, {"sequence": "CTAAAGA", "uncleaved DNA left (log2)": -0.0471}, {"sequence": "CTCATCC", "uncleaved DNA left (log2)": -0.0804}, {"sequence": "TCACGCT", "uncleaved DNA left (log2)": -0.044}, {"sequence": "AAGCGAC", "uncleaved DNA left (log2)": 0.0995}, {"sequence": "CTTTCAG", "uncleaved DNA left (log2)": 0.0745}, {"sequence": "AGGGTTT", "uncleaved DNA left (log2)": 0.14}, {"sequence": "CCATATC", "uncleaved DNA left (log2)": -0.193}, {"sequence": "AGAATTT", "uncleaved DNA left (log2)": -0.0592}, {"sequence": "CGCTTGC", "uncleaved DNA left (log2)": -0.104}, {"sequence": "CCTAAGT", "uncleaved DNA left (log2)": 0.0539}, {"sequence": "CGACAAT", "uncleaved DNA left (log2)": -0.112}, {"sequence": "TTCTGAC", "uncleaved DNA left (log2)": -0.178}, {"sequence": "AGAATGG", "uncleaved DNA left (log2)": 0.0756}, {"sequence": "GATGCTC", "uncleaved DNA left (log2)": 0.00767}]}]}
